In all, about 110,000 compounds were measured (“z-score”: median about -0.1, highest 2% from about 2 on). This is one part of the list. Activity calls are given as the source filed them.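 Rule for the calls: active = z-score in the third read window above 3 or below -3; inactive = the rest.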

This passage reports z-score results from PubChem BioAssay AID488969 (Vanderbilt High Throughput Screening Facility, 2010).

This test deals with Metabotropic glutamate receptor 8 (Rattus norvegicus) (UniProt P70579). Kind of test: rat mGluR8 modulators via GIRK flux, primary screen, cell-based, thallium flux, HTS (AID 488969). The following applies: HEK293 rat mGluR8, GIRK (G protein-gated inwardly rectifying potassium channel) thallium flux, FluoZin2; at 10 µM; stronger effect = higher value; submaximal glutamate (EC20) added with thallium.
Sequence of UniProt P70579 (P70579 whole entry, looked up): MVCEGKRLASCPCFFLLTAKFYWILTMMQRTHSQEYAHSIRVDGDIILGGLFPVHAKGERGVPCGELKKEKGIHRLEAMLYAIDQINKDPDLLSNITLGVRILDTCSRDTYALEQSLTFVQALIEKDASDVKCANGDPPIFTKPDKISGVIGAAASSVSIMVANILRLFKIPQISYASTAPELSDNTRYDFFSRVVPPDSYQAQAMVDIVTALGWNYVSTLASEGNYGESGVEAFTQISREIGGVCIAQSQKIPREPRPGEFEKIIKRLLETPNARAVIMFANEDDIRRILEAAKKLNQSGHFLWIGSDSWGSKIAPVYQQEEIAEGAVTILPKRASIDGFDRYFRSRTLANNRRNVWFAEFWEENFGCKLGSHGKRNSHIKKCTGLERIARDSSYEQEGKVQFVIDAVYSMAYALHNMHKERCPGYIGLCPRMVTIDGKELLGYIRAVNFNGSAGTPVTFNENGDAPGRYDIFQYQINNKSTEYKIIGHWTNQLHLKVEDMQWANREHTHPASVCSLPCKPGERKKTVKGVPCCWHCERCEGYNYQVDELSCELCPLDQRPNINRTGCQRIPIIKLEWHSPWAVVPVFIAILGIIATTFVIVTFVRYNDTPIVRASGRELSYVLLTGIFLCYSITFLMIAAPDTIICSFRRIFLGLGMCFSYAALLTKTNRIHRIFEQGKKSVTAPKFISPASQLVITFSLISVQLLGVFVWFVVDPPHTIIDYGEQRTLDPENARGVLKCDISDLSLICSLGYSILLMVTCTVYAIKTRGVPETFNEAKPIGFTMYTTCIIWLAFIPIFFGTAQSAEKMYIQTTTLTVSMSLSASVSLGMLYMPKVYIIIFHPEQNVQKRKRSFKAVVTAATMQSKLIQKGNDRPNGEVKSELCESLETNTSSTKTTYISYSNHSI
With `CCn1c(SCC(=O)N2CCOCC2)nnc1-c1cccs1`, the z-score amounted to 0.783.

Turning to `O=C(NC1CCCCC1)C(c1ccccc1)N(Cc1ccco1)C(=O)Cn1cnc2ccccc21` (configuration not stated), the z-score is -1.29.

As to `CC(=O)Nc1sc2c(c1CN1CCN(c3ccc(F)cc3)CC1)CCCC2`, the z-score is -0.0547.

Consider `Cc1ccc2c(c1)[nH]c1c(=O)n(CCN3CCCCC3)cnc12`, for which the z-score was 0.776.

In turn, `O=C(CSc1ccc2nnc(-c3ccc(F)cc3)n2n1)NCc1ccco1` displayed a z-score of -0.204.

In turn, `CC(C)NC(=S)NCc1cccnc1` showed a z-score of -0.16.

With `O=C1C=CC(=O)N1Nc1ccc(Br)cc1`, the z-score was -0.363.

`CCN(CC)C(=O)CN(c1cc2c(cc1OC)oc1ccccc12)S(=O)(=O)c1ccc(C)cc1` registered a z-score of -0.512.

`C(=N\Nc1nc2ccccc2s1)/c1ccc2c(c1)OCO2` yielded a z-score of -0.0472.

For `CC(=Nc1ccc(C)c(C)c1)C1=C(O)CCC1=O`, the z-score is -0.6.

`CCOc1cccc(C(=O)Nc2cccnc2)c1` came in with a z-score of -0.219.

On to `CCCn1c(SCC(=O)Nc2cc(Cl)ccc2OC)n[nH]c1=O`, for which the z-score is -2.02.

`Cc1ccc(C(=O)NC(=S)Nc2cc(-c3nc4ccccc4s3)ccc2C)cc1`: the z-score stood at 0.216.

Turning to `O=C(CN1CCOCC1)Nc1ncc(Cc2ccccc2Cl)s1`, the z-score was -0.314.

With `CC(=O)CCc1ccc(OC(=O)c2cccnc2)cc1`, the z-score is 0.137.

As for `CS(=O)(=O)N(CCc1ccccc1)CC(N)=O`, the z-score was -0.42.

The compound `COc1cc(OC)c(NS(=O)(=O)c2coc(C(N)=O)c2)cc1Cl` came in with a z-score of 0.426.

Compound `CC(=O)N(C)c1nnc(-c2cnccn2)s1` had a z-score of -0.0211.

Turning to `CCC(=O)C1=C(N2CCCC2)CC(C)(C)CC1=O`, the z-score came to 0.328.

As to `Cc1cc(C(=O)Nc2cccc3ncccc23)no1`, the z-score was found to be 0.0165.

`Cc1ccc(CS(=O)(=O)CCC(=O)NCCN2CCCCC2C)cc1` (configuration not stated) returned a z-score of 1.29.

Compound `COc1ccc(N(Cc2ccccc2)C(=O)CSc2nnc(Cn3nnc4ccccc43)o2)cc1` showed a z-score of -1.04.

In turn, `Cc1nnsc1NC(=O)OCc1ccccc1Cl` showed a z-score of -0.195.

Compound `COC(=O)c1ccccc1NC(=O)c1cccc(COc2ccccc2Cl)c1` returned a z-score of -0.1.

For the compound `O=C(C1CCCCC1)N1CCN=C1SCc1cccnc1`, the z-score was -0.208.

`O=C1NC(c2ccc3c(c2)OCO3)Oc2ccccc21` (configuration not stated) showed a z-score of -0.859.

`CC(C)c1ccc(C(=O)NC(=S)NCc2cccnc2)cc1` displayed a z-score of -0.0902.

With `C/C(CC(C)(C)C1CCCCC1)=N\NC(N)=S`, the z-score was found to be 1.92.

Compound `CCC(O)c1cc2c(cc1NC(=O)c1ccc(C)cc1)OCCO2` (configuration not stated) showed a z-score of -0.0738.

Regarding `COC(=O)c1ccc(N2CN=C(c3ccc(C)cc3)NC2=S)cc1`, the z-score is -0.484.

As to `COc1ccc(-n2nnnc2SC(C)C(=O)NCC(=O)Nc2ccc(F)c(F)c2F)cc1` (configuration not stated), the z-score is -0.346.

Compound `Cn1c(SCc2ccccc2)nnc1-c1c[nH]c2ccccc12` registered a z-score of 0.0787.

`CCSc1cc(C)nc2c(-c3ccc(Cl)cc3)c(C)nn12` returned a z-score of 0.367.

Turning to `COc1ccc(C(=O)Cn2nnc(-c3ccccc3NC(=O)C3CCCCC3)n2)cc1`, the z-score was -1.02.

`O=C(NC(=S)Nc1ccc2c(c1)OCO2)c1ccccc1`: the z-score was active: 3.25.

The compound `O=C1C=C(NC2CC2)C2(CCCCC2)O1` yielded a z-score of -0.972.

On to `Cc1ccc(-c2noc(C3CCCN(S(=O)(=O)c4ccc(S(=O)(=O)N(C)C)cc4)C3)n2)o1` (configuration not stated), for which the z-score is -0.0937.

In turn, `CCN(CC)c1ccc(-c2c(C#N)c(N)nc(OC)c2C#N)cc1` gave a z-score of 0.242.

`CCn1c(SC)nnc1-c1c[nH]c2ccccc12` registered a z-score of 0.0853.

With `CCCCP(=O)(CCCC)CCP(=O)(c1ccccc1)c1ccccc1`, the z-score is -0.667.

The compound `COC(=O)Cn1c2ccc(OC)cc2c2nc3ccccc3nc21` came in with a z-score of 0.424.

In the case of `CC(=O)c1ccc(-n2c(CCC(=O)O)ccc2-c2cccs2)cc1`, the z-score was -0.00367.

The compound `O=S(=O)(c1ccc(Cl)s1)N1CCN(C/C=C/c2ccccc2)CC1` returned a z-score of -0.0433.

In the case of `CCC(C)C(NC(=O)[C@@H](NC(=O)c1ccccc1F)C(C)C)C(=O)OC` (some centres not stated), the z-score is -0.348.

Compound `CCn1cc(C(=O)NCc2cccc(F)c2)c(=O)c2cc(F)c(N3CCN(C(=O)c4ccco4)CC3)cc21` registered a z-score of -0.898.

Compound `COc1ccc2c(c1)CC(C1(O)C(=O)Nc3ccccc31)C2=O` (configuration not stated) displayed a z-score of 0.363.

With `Cc1ccc2nsnc2c1NC(=O)c1cccc([N+](=O)[O-])c1`, the z-score is -0.21.

`CCC(=O)Nc1nc(N)n(-c2ccccc2)n1`: the z-score is 0.054.

Compound `CCOC(=O)c1cnn(-c2nc3c(C)cccc3s2)c1C(F)(F)F` returned a z-score of -0.158.

In turn, `CSCC[C@H](NC(=O)OC(C)(C)C)C(=O)N1CCC(C(=O)N[C@H](C(=O)O)C(C)C)CC1` returned a z-score of -0.119.

`COc1cccc(OCCOc2c(OC)cccc2OC)c1` displayed a z-score of -0.378.

Compound `CC1CCCC(NC(=O)COC(=O)c2cc(S(=O)(=O)N3CCCCC3)ccc2N2CCOCC2)C1C` (configuration not stated) gave a z-score of -0.428.

Compound `CCCOc1ccc(C(=O)NCC(c2ccco2)N(C)C)cc1` (configuration not stated) gave a z-score of 0.052.

Compound `CCN(c1ccccc1)S(=O)(=O)c1cc(C(=O)Oc2ccc3c(C)cc(=O)oc3c2)ccc1C` returned a z-score of -0.781.

In the case of `CSc1nc2ccccc2cc1/C=C(\C#N)c1ccc(Cl)cc1Cl`, the z-score is 0.0292.

`O=C(CCn1c(=O)c2ccccc2n(CC(=O)NCCC2=CCCCC2)c1=O)NCc1ccco1`: the z-score was -0.381.

As for `Cc1nn(C(=O)c2cccnc2)c(C)c1C`, the z-score was determined as 0.951.

In turn, `O=C(Nc1ccc(F)cc1)c1cc(S(=O)(=O)Nc2ccc(F)cc2)cs1` showed a z-score of -0.0782.

For the compound `Cn1c(=O)c2c(nc(NCCCO)n2Cc2cccc(Br)c2)n(C)c1=O`, the z-score was -0.414.

Take `COc1cc(C(c2c(C)[nH][nH]c2=O)c2c(C)[nH][nH]c2=O)ccc1OC(=O)c1cccc([N+](=O)[O-])c1`: the z-score is -0.286.

For `Cc1nc(Nc2ccc(S(N)(=O)=O)cc2)oc1C`, the z-score amounted to 0.35.

In turn, `CCOCCCNC(=O)Cc1ccc(OC)c(OC)c1` showed a z-score of 0.0289.

As to `COc1cccc(C(=O)NCCC2=CCCCC2)c1`, the z-score stood at 0.00764.

In turn, `COc1ccc(OC)c(-c2cc(C(=O)NCCN3CCOCC3)no2)c1` registered a z-score of -0.164.

For `O=C(c1cc(-c2ccc(Cl)cc2Cl)on1)N1CCN(C(=O)c2ccco2)CC1`, the z-score came out at 0.486.

With `CCN(CC)C(=O)Cc1cc(C(=O)O)c2ccccc2n1`, the z-score stood at 0.153.

Regarding `Cc1nn(Cc2ccccc2Cl)c(C)c1NC(=O)Cn1nc([N+](=O)[O-])c(Cl)c1C`, the z-score was -0.13.

`CC(=O)C1=C(c2ccccc2)NC(=S)NC1c1cc(Cl)c(OC(C)C)c(Cl)c1` (configuration not stated) showed a z-score of 0.616.

`Cc1ccccc1-c1cc(-c2ccccc2O)n[nH]1`: the z-score was -0.969.

With `Cc1cc(=O)oc(C)c1C(=O)NCCC1=CCCCC1`, the z-score is -0.0341.

Consider `COc1ccccc1CC(=O)O/N=C(\N)c1cccc([N+](=O)[O-])c1`, for which the z-score was -0.313.

The compound `CCOc1ccc(CNc2nc3ccccc3n2CCN2CCOCC2)cc1` showed a z-score of 0.0891.
